Measured values from the supplement of paper PMC10126150.
Values marked as one replicate rest on one cluster of the flow cell; about a third of the high ones do not repeat.

These sequences were tested on ATP (assay: switch fluorescence ratio, 500 uM ATP over buffer (Cy3 cluster intensity, sum of 5 cycles each) (fold (ratio)); higher = stronger signal-on switching upon ATP binding; sequences stand for … in TCGTCGGCAGCGTCAGATGTGTATAAGAGACAGTTTTTTTTTTTTTTTTTTTTTTTTT…TC). Settings: aptamer strand: ATP DNA aptamer (quencher-CACCTGGGGGAGTATTGCGGAGGAAGG + anchor), 100 nM annealed; ATP concentration: 500 uM; one replicate.
In short: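 The quencher-labelled ATP aptamer, at 100 nM, was annealed to Cy3-labelled switching-strand clusters on a modified Illumina MiSeq flow-cell. The clusters were imaged in selection buffer, then after 15 min with 500 uM ATP at 22 °C, and this buffer/ATP cycle ran five times with NaOH stripping and re-annealing between runs. Per-cluster fluorescence ratios, summed target-cycle over summed buffer-cycle Cy3 intensity, were averaged per switch-domain sequence. Clusters outside 100-1000 RFU were excluded.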
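Further: ATP exposure 15 min at 22 °C before imaging.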

| Sequence | switch fluorescence ratio |
| --- | --- |
| GAATATCCAG | 0.967 |
| GAATCACTGA | 1 |
| GAATCCGATG | 1.05 |
| GAATCCTATT | 0.974 |
| GAATCGCTGG | 0.996 |
| GAATCGTCTT | 1 |
| GAATGAATGA | 0.979 |
| GAATGACGGG | 1.01 |
| GAATGAGCGC | 1.15 |
| GAATGATAGG | 0.988 |
| GAATGCGGTC | 1.03 |
| GAATGGCGGG | 0.964 |
| GAATGTCCTC | 0.994 |
| GAATTATCTT | 1.03 |
| GAATTCCAGG | 1.23 |
| GAATTCGACA | 0.999 |
| GAATTCTTAA | 0.998 |
| GAATTGAGAC | 1.01 |
| GAATTGATAG | 1.04 |
| GAATTGCCGG | 0.94 |
| GAATTGGCGA | 1.02 |
| GAATTGTATC | 1.01 |
| GAATTTAGAA | 1.02 |
| GAATTTAGAC | 0.993 |
| GAATTTGTAC | 1.12 |

| Sequence | switch fluorescence ratio |
| --- | --- |
| GAATTTTGCC | 1.05 |
| GAATTTTTCA | 0.959 |
| GACAAAATC | 1.18 |
| GACAAATTAG | 0.98 |
| GACAATACAG | 1.01 |
| GACAATAGTT | 1.04 |
| GACAATCGCA | 1.37 |
| GACAATTAAA | 1.06 |
| GACAATTGTT | 1.04 |
| GACACACGAA | 1.34 |
| GACACCGATT | 1.07 |
| GACACGAGTT | 1.07 |
| GACAGATTAG | 1.01 |
| GACAGTAGCT | 1.05 |
| GACAGTCTA | 0.999 |
| GACAGTGCAA | 1.3 |
| GACATAAGAT | 0.987 |
| GACATATTCA | 1.04 |
| GACATCCGCA | 2.1 |
| GACATCTTAC | 1.21 |
| GACATGCCTT | 1.01 |
| GACATTCACG | 1.29 |
| GACATTCCTC | 1.09 |
| GACATTGCAC | 1.09 |
| GACATTTAAC | 1.04 |

| Sequence | switch fluorescence ratio |
| --- | --- |
| GACATTTGCT | 1.06 |
| GACCAGTACA | 1.04 |
| GACCATTTAT | 1.01 |
| GACCCAACTA | 0.986 |
| GACCCACAGC | 1.23 |
| GACCCGCCAG | 1.07 |
| GACCCTAAAG | 1.03 |
| GACCCTTGGG | 0.962 |
| GACCGCTGTT | 1.01 |
| GACCGGACAA | 1.45 |
| GACCGGACCG | 1 |
| GACCGTAGCC | 1.54 |
| GACCGTCTAC | 1.17 |
| GACCTCTCCA | 1.08 |
| GACCTGGAAC | 1.08 |
| GACCTGTTAG | 0.962 |
| GACCTGTTGA | 0.983 |
| GACCTTATAG | 1.03 |
| GACGAGAGGG | 1.04 |
| GACGAGTATC | 0.996 |
| GACGATGAGC | 1.1 |
| GACGCAGCGG | 1.25 |
| GACGCATTAG | 4.73 |
| GACGCCGCGC | 3.27 |
| GACGCGCGCT | 0.988 |

| Sequence | switch fluorescence ratio |
| --- | --- |
| GACGCTTAGG | 1.05 |
| GACGGATGGG | 1.01 |
| GACGGCGTAG | 0.999 |
| GACGGGGCGC | 1.04 |
| GACGGGTTAT | 0.992 |
| GACGGTCGG | 1.01 |
| GACGGTGAGT | 1.03 |
| GACGTAATTT | 1.28 |
| GACGTCAGTA | 1.03 |
| GACGTCCACC | 1.44 |
| GACGTTTGTT | 1.44 |
| GACTAAAAAT | 1.03 |
| GACTACAGCT | 1.04 |
| GACTACTTGA | 1 |
| GACTAGAGAG | 0.987 |
| GACTAGGTGG | 0.957 |
| GACTATCCCT | 1.03 |
| GACTCGGACA | 1.04 |
| GACTGAGGAA | 0.936 |
| GACTGCCGCC | 1.32 |
| GACTGGACTC | 1.15 |
| GACTGGCCCT | 1 |
| GACTGGGCGC | 1 |
| GACTGGGGCG | 1.2 |
| GACTGTATTC | 1.08 |

| Sequence | switch fluorescence ratio |
| --- | --- |
| GACTGTGCCA | 1.02 |
| GACTTAGCGC | 0.928 |
| GACTTAGTCG | 1.06 |
| GACTTCAAAA | 1.01 |
| GACTTCCTCA | 2.18 |
| GACTTCTCCT | 1.05 |
| GACTTGCATG | 1.03 |
| GACTTGGTCT | 0.958 |
| GACTTTCGTA | 1.03 |
| GAGAAAACGG | 1.04 |
| GAGAAAATA | 0.977 |
| GAGAAACGAC | 1 |
| GAGAACTCG | 0.966 |
| GAGAAGGCTA | 1 |
| GAGAATCACT | 1.03 |
| GAGAATGAGA | 0.976 |
| GAGAATTTCT | 1.04 |
| GAGACATATA | 1.01 |
| GAGACGATGA | 1.01 |
| GAGACTTTCG | 1.11 |
| GAGAGCCACT | 0.941 |
| GAGAGCTGGT | 0.999 |
| GAGAGGCTAG | 0.978 |
| GAGAGGGCGT | 1 |
| GAGAGGGTT | 1.02 |

| Sequence | switch fluorescence ratio |
| --- | --- |
| GAGATAACGC | 0.999 |
| GAGATACAAG | 0.968 |
| GAGATCATCG | 0.957 |
| GAGATGCGCT | 1.02 |
| GAGATGTCTC | 0.942 |
| GAGATTATAG | 0.998 |
| GAGATTATTG | 0.993 |
| GAGCAAGTGT | 1.03 |
| GAGCAATGTT | 1.5 |
| GAGCACCGTA | 1.02 |
| GAGCATTCCC | 1.18 |
| GAGCATTCG | 1.07 |
| GAGCCAGTCC | 0.994 |
| GAGCCATACG | 1.87 |
| GAGCCATCGA | 0.961 |
| GAGCCGCATC | 1.16 |
| GAGCCGGTTA | 0.968 |
| GAGCCTAAGG | 0.994 |
| GAGCCTGGGA | 0.968 |
| GAGCGACTGG | 1.02 |
| GAGCGAGTTG | 0.985 |
| GAGCGATAGT | 1.05 |
| GAGCGCTGCG | 0.982 |
| GAGCGGTCTG | 1.02 |
| GAGCGTATTC | 1.11 |

| Sequence | switch fluorescence ratio |
| --- | --- |
| GAGCGTCGTA | 1.14 |
| GAGCGTCTTG | 0.958 |
| GAGCTAGCTG | 1.03 |
| GAGCTCCATT | 1.02 |
| GAGCTCTCTT | 0.998 |
| GAGCTGCTAC | 1.25 |
| GAGCTTTCTT | 1.05 |
| GAGGAACGGG | 0.963 |
| GAGGAAGATA | 1.06 |
| GAGGAAGCGT | 1.03 |
| GAGGAATAAC | 1.07 |
| GAGGAGGTCA | 0.95 |
| GAGGCAGG | 1.03 |
| GAGGCCGAGG | 0.968 |
| GAGGCTTATC | 1.03 |
| GAGGGACGTA | 0.985 |
| GAGGGATGAG | 0.991 |
| GAGGGATGTG | 0.973 |
| GAGGGCAATA | 4.48 |
| GAGGGCAGTG | 0.974 |
| GAGGGGAATA | 0.97 |
| GAGGGGATGC | 1.09 |
| GAGGGTAGTA | 1.02 |
| GAGGGTCGCG | 0.976 |
| GAGGTAACGG | 0.983 |

| Sequence | switch fluorescence ratio |
| --- | --- |
| GAGGTAAG | 1.04 |
| GAGGTAAGTA | 0.977 |
| GAGGTATCAA | 1.01 |
| GAGGTCAGCA | 1.01 |
| GAGGTCCGAT | 1.02 |
| GAGGTCGACG | 1.01 |
| GAGGTCTCTC | 0.957 |
| GAGGTGATTG | 0.984 |
| GAGGTGCGCT | 0.964 |
| GAGGTTACAT | 1.01 |
| GAGGTTGGTT | 0.973 |
| GAGTAATAAA | 1.06 |
| GAGTAATTGG | 0.997 |
| GAGTAGTTTG | 1 |
| GAGTATACAC | 0.927 |
| GAGTATCCCT | 0.992 |
| GAGTATTGT | 0.963 |
| GAGTATTTGG | 0.999 |
| GAGTCAATGG | 1.31 |
| GAGTCACCGG | 0.975 |
| GAGTCCTTG | 1.04 |
| GAGTCGAGCT | 0.998 |
| GAGTCGTATT | 0.983 |
| GAGTCTAAGG | 0.991 |
| GAGTCTCGGC | 0.99 |
